Out of some 150,000 compounds screened, about 6,500 (4.3%) were called active. This list was built around the results that the source calls inconclusive (neither active nor inactive); the mix of calls is not that of the screen. Calls come from the whole dose curve; as a rule, active = well fitted inhibition curve with a large enough effect (not every such curve was filed as active); inconclusive = small, poorly fitted or top-dose-only effect, or another doubt; inactive = no such curve, though single readings can be large or run the other way. No potency is given beside an inconclusive call; the fits are too rough.
target: 15-hydroxyprostaglandin dehydrogenase [NAD(+)] (Homo sapiens) (UniProt P15428); experiment: qHTS Assay for Inhibitors of HPGD (15-Hydroxyprostaglandin Dehydrogenase); conditions: purified HPGD, NADH fluorescence kinetic, PGE2 substrate; activity change, negative = inhibition: active compounds read low
Procedure, shortened: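 NADH formation kinetics: reaction with 30 uM PGE2 and 1 mM NAD+ (final), 20 nM enzyme, Tris-HCl pH 8 with Tween 20, after 15 min compound preincubation at room temperature. Fluorescence change, last versus first of five reads.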
% is set by controls: 0 for no effect and ±100 for the full control effect; potency is the fitted concentration of half-maximal effect; tags give direction and shape of the fitted curve.

Sequence of UniProt P15428 (P15428 whole entry, looked up): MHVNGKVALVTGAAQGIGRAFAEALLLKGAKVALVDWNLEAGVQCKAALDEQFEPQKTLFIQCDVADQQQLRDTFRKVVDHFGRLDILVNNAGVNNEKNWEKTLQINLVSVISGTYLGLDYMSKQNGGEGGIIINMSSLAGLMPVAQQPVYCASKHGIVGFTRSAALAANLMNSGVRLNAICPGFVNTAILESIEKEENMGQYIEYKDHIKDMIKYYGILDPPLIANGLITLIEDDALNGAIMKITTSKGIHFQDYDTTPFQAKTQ

SMILES	activity change, negative = inhibition	Potency
N#Cc1ccccc1Cn1c(=O)n(Cc2ccc(C(=O)NCc3ccco3)cc2)c(=O)c2sccc21	inactive: -7.36%	–
Cc1occc1-c1n[nH]c(=S)n1-c1ccccc1	–	inconclusive [inhibitor, single point]
CCc1nnc2c3cnn(-c4ccccc4)c3ncn12	–	inconclusive [inhibitor, partial curve]
O=C(CSc1nc2cc(Cl)ccc2s1)c1cc2ccccc2o1	–	inconclusive [inhibitor, single point]
Cc1cccc(-c2nc(CS(=O)CC(=O)N3CCCCC3)c(C)o2)c1 (centres undefined)	inactive: -6.55%	–
Cc1cc(N2CCCC2)nc(-c2ccccc2O)n1	–	inconclusive [inhibitor, partial curve]
CCCc1cc(C(N)=O)c(NC(=O)c2ccco2)s1	–	inconclusive [inhibitor, single point]
COc1ccc(CCN(C)CCC(=O)Nc2cc(C)ccc2C)cc1OC	–	inconclusive [inhibitor, partial curve]
Nn1c(SCc2csc(-c3ccccc3)n2)nnc1-c1cccs1	–	inconclusive [inhibitor, partial curve]
COC(=O)c1ccc(N2C(=O)CC(N3CCC(O)(c4ccc(Br)cc4)CC3)C2=O)cc1 (centres undefined)	inactive: -9.03%	–
CC(/C=N/n1c(C2CCCCC2)n[nH]c1=S)=C\c1ccccc1	–	inconclusive [inhibitor, partial curve]
CNc1ccc(Br)cc(C(=O)/C=C/c2cccc(OC)c2)c1=O	–	active: 7.94 µM
COc1cccc(/C=N/NC(=O)Cn2ccnc2C)c1	inactive: -8.32%	–
CN(C)C(=O)N1CCCC(C(=O)NCCc2ccccc2)C1 (centres undefined)	–	inconclusive [inhibitor, partial curve]
Cc1ccc(C(NC(=O)c2ccccc2)C(Cl)Cl)cc1 (centres undefined)	inactive: -0.495%	–
COc1ccc(NC2=CC(c3ccc(OC)c(OC)c3)N(c3ccc(OC)cc3)C2=O)cc1 (centres undefined)	–	inconclusive [inhibitor, partial curve]
Cc1ccc(-c2nnc(CSc3nnc4c5c(C)c(C)sc5nc(C(C)C)n34)o2)cc1	–	inconclusive [inhibitor, partial curve]
O=C(NCc1nc2ccccc2[nH]1)[C@H]1C[C@@H]1[C@H](NP(=O)(c1ccccc1)c1ccccc1)c1ccccc1	inactive: -9.51%	–
CCCC(=O)Nc1c(C(=O)OCC)[nH]c2ccccc12	–	inconclusive [inhibitor, partial curve]
Oc1ccccc1/C=N/NC1=NCCCCC1	–	inconclusive [inhibitor, partial curve]
O=C(Oc1ccc(Br)cc1C(=S)N1CCCCC1)c1cc([N+](=O)[O-])cc([N+](=O)[O-])c1	–	inconclusive [inhibitor, partial curve]
O=C(Nc1ccc(C(=O)N2CCCCC2)cc1)C1CCCCC1	–	active: 2 µM

SMILES	activity change, negative = inhibition	Potency
CCOc1cccc(N2C(=O)CC(N(CCc3ccc(OC)c(OC)c3)C(=O)CC)C2=O)c1 (centres undefined)	inactive: -2.31%	–
Cc1ccccc1OCC(=O)NCC(=O)N/N=C/c1ccc(Br)o1	inactive: -0.341%	–
COc1cccc(-c2nn(-c3ccccc3)cc2C(=O)Nc2nccs2)c1	–	inconclusive [inhibitor, single point]
Cc1cc(C)nc(NC(=O)/C=C/c2ccc3c(c2)OCO3)c1	–	inconclusive [inhibitor, partial curve]
COc1ccc(-c2oc3ncn4nc(COc5ccccc5)nc4c3c2-c2ccc(OC)cc2)cc1	inconclusive: -163% [inhibitor]	–
CC1(C)C(=O)Nc2ccccc2N1C(=O)COC(=O)C1CCCCC1	inactive: 2.34%	–
COC(=O)C1CCN(S(=O)(=O)c2c(C)n(C)c(=O)n(C)c2=O)CC1	inactive: 1.5%	–
N=C1SC(c2ccccc2)C(=O)N1c1ncc(Cc2ccccc2Cl)s1 (centres undefined)	–	inconclusive [inhibitor, full curve, poor fit]
CC(C)Sc1nnc(-c2c[nH]c3ccccc23)n1C	inactive: -12.9%	–
c1ccc(-c2ccc(C3=Nn4c(Cn5nnc6ccccc65)nnc4SC3)cc2)cc1	–	active: 17.8 µM
CCCCCCC(=O)Nc1c(O)c2ccccc2[nH]c1=O	–	inconclusive [inhibitor, partial curve]
CC(=O)Nc1ccc(Nc2cc(C)nc3c(-c4ccccc4)cnn23)cc1	–	inconclusive [inhibitor, single point]
CCOC(=O)CSc1nnc(-c2ccc(NS(=O)(=O)c3ccc(C)cc3)cc2)o1	–	inconclusive [inhibitor, partial curve]
COc1ccc(Oc2ccccc2/C=N/O)cc1	–	inconclusive [inhibitor, single point]
Cc1sc(NC(=O)c2ccccc2)c(C(c2ccc(Cl)cc2)N2CCN(CCO)CC2)c1C (centres undefined)	–	inconclusive [inhibitor, partial curve]
Cc1ccc2c(c1)N[C@H](c1ccc(C(=O)O)cc1)c1cccn1-2	–	inconclusive [inhibitor, partial curve]
Cc1nc2ccc(-c3nc4cc(N)ccc4o3)cc2[nH]1	–	inconclusive [inhibitor, partial curve]
Cc1csc(SCC(=O)Nc2cccc(S(=O)(=O)N3CCCC3)c2)n1	inactive: -0.838%	–
CC(C)C1N=C2c3ccccc3N=C(SCC(=O)NCCc3ccc(S(N)(=O)=O)cc3)N2C1=O (centres undefined)	–	inconclusive [inhibitor, partial curve]
O=C(CCNS(=O)(=O)c1cccs1)NCc1ccco1	inactive: 4.53%	–
Oc1ccccc1-c1cc(-c2ccco2)[nH]n1	–	inconclusive [inhibitor, partial curve]
CO[C@@H]1/C=C\O[C@]2(C)Oc3c(C)c(O)c4c(O)c(cc(O)c4c3C2=O)NC(=O)/C(C)=C\C=C/[C@H](C)[C@@H](O)[C@H](C)[C@H](O)C(C)[C@H](OC(C)=O)[C@@H]1C (some centres undefined)	inactive: -12.6%	–

Source: PubChem BioAssay AID894 (National Center for Advancing Translational Sciences (NCATS), 2007)
